According to patent US4076849A, “Control of nitrosamine formation in nitrite cured meat” (Canada Packers Limited, priority 1975, dated 1978):
Where “and” joins values, the source holds several entries; their conditions need not be identical. Equal values may be shown once. At least one compound was matched to its structure with a doubt left.

Assays:
[1] = Nitrosamine content after frying cured bacon slices streaked with a soya oil solution of the aromatic secondary amine
Description: In the case of o-methoxy-N-dodecylaminobenzene samples were tested at 100, 200 and 300 ppm levels. The controls were streaked with oil alone.

[2] = Nitrosamine content of fat rendered on frying bacon cured with curing solution containing the aromatic secondary amine (injected); conditions: cook-out fat, control 44 ppb, not accurate below about 3 ppb
[3] = Table III, 100 ppm, controls (ppb): Ex 30 76.0 and 60.0, 31 29.0, 32-33 42.5, 34 32.5, 35-39 28.2, 40 17.5, 41 20.0, 42 19.1, 43-44 34.0, 45 23.0, below about 3 ppb is below accurate detection level
[4] = Table IV, 100 ppm, controls (ppb): Ex 46 34.0, 47 76.0, 48-49 41.0, 50-54 36.2

Row | SMILES | NITROSAMINES Test [1, 3] | NITROSAMINES Test [1, 4] [ppb] | other results
1 | CCCCCCCCCCCCNc1ccc(OCC)cc1 [Example 30, p-Ethoxy-N-dodecylaminobenzene] | 1.9 ppb and 3.0 ppb |  | 
2 | CCCCCCCCCCCCNc1ccc(OCCCCCCCCCCCC)cc1 [Example 31, p-Dodecyloxy-N-dodecylaminobenzene] | 2.1 ppb |  | 
3 | CCNc1ccc(OC)cc1 [Example 32, p-Methoxy-N-ethylaminobenzene] | 0.0 ppb |  | 
4 | CCNc1ccc(OCC)cc1 [Example 33, p-Ethoxy-N-ethylaminobenzene] | 0.0 ppb |  | 
5 | CNc1ccc(OC)cc1 [Example 34, p-Methoxy-N-methylaminobenzene] | 0.0 ppb |  | 
6 | CCCCNc1ccc(OC)cc1 [Example 35, p-Methoxy-N-butylaminobenzene] | 0.0 ppb |  | 
7 | CCCCCCNc1ccc(OC)cc1 [Example 36, p-Methoxy-N-hexylaminobenzene] | 0.0 ppb |  | 
8 | CCOc1ccc(NC)cc1 [Example 37, p-Ethoxy-N-methylaminobenzene] | 0.0 ppb |  | 
9 | CCCCNc1ccc(OCC)cc1 [Example 38, p-Ethoxy-N-butylaminobenzene] | 0.0 ppb |  | 
10 | CCCCCCNc1ccc(OCC)cc1 [Example 39, p-Ethoxy-N-hexylaminobenzene] | 0.0 ppb |  | 
11 | COc1ccc(NCC(C)(C)C)cc1 [Example 40, p-Methoxy-N-(2,2-dimethylpropyl)-aminobenzene] | 1.3 ppb |  | 
12 | CCCCCCCCCCCCNc1ccc(OC(C)CC)cc1 (stereo not drawn) [Example 41, p-Sec.butoxy-N-dodecylaminobenzene] | 1.2 ppb |  | 
13 | CCC(CNc1ccc(OC)cc1)c1ccccc1 (stereo not drawn) [Example 44, p-Methoxy-N-(2-phenylbutyl)-aminobenzene] | 2.5 ppb |  | 
14 | CCCCCCCCCCCCNc1cccc(OC)c1 [Example 46, m-Methoxy-N-dodecylaminobenzene] |  | 6.6 | 
15 | CCCCCCNc1ccc(Oc2ccccc2)cc1 [Example 48, p-Phenoxy-N-hexylaminobenzene] |  | 8.5 | 
16 | CCCCCCNc1ccccc1Oc1ccccc1 [Example 49, o-Phenoxy-N-hexylaminobenzene] |  | 26.0 | 
17 | CCCCNc1ccccc1OC [Example 50, o-Methoxy-N-butylaminobenzene] |  | 10.6 | 
18 | CCCCCCNc1ccccc1OC [Example 51, o-Methoxy-N-hexylaminobenzene] |  | 11.9 | 
19 | CCCCCCCCCCCCNc1ccccc1OCCCC [Example 52, o-Butoxy-N-dodecylaminobenzene] |  | 10.6 | 
20 | CCCCCCCCCCCCNc1ccccc1OC [Example 53, o-Methoxy-N-dodecylaminobenzene] |  |  | NITROSAMINES Test ([1]; Table IV, 200 ppm (0.6872 mMoles in Kg of Bacon), control 32.5 ppb): 6.2 ppb; NITROSAMINES Test ([1]; Table IV, 300 ppm (1.0309 mMoles in Kg of Bacon), control 32.5 ppb): 6.6 ppb
21 | CCNc1ccccc1OC [Example 54, o-Methoxy-N-ethylaminobenzene] |  | 10.6 | 
22 | CCCCCCCCCCCCNc1ccc(OC)cc1 [p-Methoxy-N-dodecylaminobenzene] |  |  | Nitrosamine ([2]; 21.75 ppm amine in the meat): 3.1 ppb; Nitrosamine ([2]; 43.5 ppm amine in the meat): 6.2 ppb; Nitrosamine ([2]; 87 ppm amine in the meat): 0 ppb; NITROSAMINES Test ([1]; Table II, 5 ppm (0.0171 mMoles in Kg of Bacon), control 57.0 ppb): 32.0 ppb; NITROSAMINES Test ([1]; Table II, 10 ppm (0.0343 mMoles in Kg of Bacon), control 57.0 ppb): 20.0 ppb; NITROSAMINES Test ([1]; Table II, 20 ppm (0.0687 mMoles in Kg of Bacon), control 57.0 ppb): 15.6 ppb; NITROSAMINES Test ([1]; Table II, 40 ppm (0.1374 mMoles in Kg of Bacon), control 57.0 ppb): 3.7 ppb; NITROSAMINES Test ([1]; Table II, 80 ppm (0.2749 mMoles in Kg of Bacon), control 57.0 ppb, figures below about 3 ppb are below accurate detection level): 2.5 ppb; NITROSAMINES Test ([1]; Table II, 100 ppm (0.3436 mMoles in Kg of Bacon), control 20.0 ppb, below about 3 ppb is below accurate detection level): 0.0 ppb; NITROSAMINES Test ([1]; Table II, 100 ppm (0.3436 mMoles in Kg of Bacon), control 69.4 ppb, below about 3 ppb is below accurate detection level): 0.0 ppb; NITROSAMINES Test ([1]; Table II, 100 ppm (0.3436 mMoles in Kg of Bacon), control 76.0 ppb, below about 3 ppb is below accurate detection level): 1.9 ppb
